This is one part of the list.
The compounds below were run on HepG2 (assay: cytotoxicity call (relative viability < 0.9)). Conditions: 10 µM.
With `COc1ccccc1S(=O)(=O)N[C@@H]1C=C[C@H](CC(=O)N2CCN(C)CC2)O[C@@H]1CO` the cytotoxicity call was “inactive”. In the case of `COc1ccc(NC(=O)Nc2ccc3c(c2)C(=O)N([C@H](C)CO)C[C@H](C)[C@@H](CN(C)C(=O)Nc2ccc(OC)cc2)OCCCC[C@H](C)O3)cc1`, the cytotoxicity call is reported as “inactive”. For `COc1ccc(C#Cc2ccc3c(c2)[C@H]2[C@H](CCN2C(=O)Nc2ccc(C(F)(F)F)cc2)[C@H](CO)N3C)cc1`, the cytotoxicity call was “inactive”. `Cc1ccc(S(=O)(=O)N(C)C[C@H]2Oc3ccc(NS(=O)(=O)c4ccccc4)cc3C(=O)N([C@H](C)CO)C[C@@H]2C)cc1` was tested, and the cytotoxicity call was “inactive”. With `CO[C@H]1CN(C)C(=O)c2cc(NC(=O)NC(C)C)ccc2OC[C@H](C)N(Cc2ccc(-c3ccccn3)cc2)C[C@H]1C` the cytotoxicity call was “inactive”. For `C[C@@H]1CN([C@@H](C)CO)C(=O)c2c(c3ccccc3n2C)-c2ccccc2CO[C@H]1CN(C)Cc1ccc(Cl)c(Cl)c1`, the cytotoxicity call was “inactive”. With `C[C@@H]1CN([C@H](C)CO)S(=O)(=O)c2ccc(C#Cc3ccccc3F)cc2O[C@@H]1CN(C)CC1CC1` the cytotoxicity call was “inactive”. For `NNC(=O)c1ccc(OC[C@@H](O)CO)cc1O`, the cytotoxicity call was “inactive”.

These compounds were tested on S. aureus RN4220 (assay: growth inhibition call (relative growth <= 0.2)). Conditions: 50 µM.
For `C[C@H](CO)N1C[C@H](C)[C@@H](CN(C)S(C)(=O)=O)OCCCC[C@H](C)Oc2ccc(N(C)C)cc2C1=O`, the growth inhibition call was “inactive”. In the case of `CN(C)Cc1cn(CC[C@@H]2CC[C@H](NC(=O)Cc3cccnc3)[C@H](CO)O2)nn1`, the growth inhibition call is reported as “inactive”. `O=C1COC2(CN1)COC2` was tested, and the growth inhibition call was “inactive”. `CCC(=O)Nc1nn2c(C)nnc2s1` was tested, and the growth inhibition call was “inactive”. For `COCC#Cc1ccc2c(c1)O[C@H](CN(C)S(=O)(=O)c1ccc(OC)cc1)[C@@H](C)CN([C@H](C)CO)S2(=O)=O`, the growth inhibition call was “inactive”. In the case of `CC(C)=CCCC(C)=CCCC(C)=CCCC(C)=CCCC(C)=CCCC(C)=CCCC(C)=CCCC(C)=CCCC(C)=CCO`, the growth inhibition call is reported as “inactive”. With `CN(C)CCC(c1ccc(Cl)cc1)c1ccccn1.O=C(O)C=CC(=O)O` (stereo not drawn) the growth inhibition call was “inactive”. For `C[C@@H]1CN([C@@H](C)CO)C(=O)c2cccc(NC(=O)NC3CCCCC3)c2O[C@@H]1CN(C)Cc1ccc(C(=O)Nc2ccccc2N)cc1`, the growth inhibition call was “inactive”. `O=c1[nH]c(=O)n(Cc2ccccc2)c2nc[nH]c12` was tested, and the growth inhibition call was “inactive”. With `C[C@H]1CN([C@@H](C)CO)C(=O)c2cc(NC(=O)Cc3ccccc3)ccc2O[C@@H]1CN(C)S(C)(=O)=O` the growth inhibition call was “inactive”. `Cc1noc(C)c1NC(=O)N(C)C[C@H]1Oc2ccc(NC(=O)CCCN(C)C)cc2C(=O)N([C@@H](C)CO)C[C@@H]1C` was tested, and the growth inhibition call was “inactive”. For `C[C@@H]1CCCCO[C@@H](CN(C)S(=O)(=O)c2ccc(Cl)cc2)[C@@H](C)CN([C@H](C)CO)C(=O)c2cc(NC(=O)c3ccccc3)ccc2O1`, the growth inhibition call was “inactive”. `C[C@@H]1CN([C@@H](C)CO)C(=O)c2cccc(NC(=O)c3ccc(-c4nccs4)cc3)c2O[C@H]1CN(C)S(C)(=O)=O` was tested, and the growth inhibition call was “inactive”. In the case of `O=C(O)CCCNC(=O)c1cccnc1`, the growth inhibition call is reported as “inactive”. `Nc1ccc2[nH]c(=S)sc2c1` was tested, and the growth inhibition call was “inactive”. `CN1CCC[C@@H](CC2c3ccccc3Sc3ccccc32)C1` was tested, and the growth inhibition call was “inactive”. For `C[C@H]1CN([C@@H](C)CO)C(=O)c2cccc(NC(=O)Nc3cccc4ccccc34)c2O[C@@H]1CN(C)C(=O)Nc1ccc2c(c1)OCO2`, the growth inhibition call was “inactive”. `O=C(C[C@@H]1C[C@@H]2c3cc(NS(=O)(=O)c4ccccc4)ccc3O[C@@H]2[C@@H](CO)O1)NC1CCCCC1` was tested, and the growth inhibition call was “inactive”. For `Cc1ccc(S(=O)(=O)N(C)C[C@@H]2OCCCC[C@@H](C)Oc3ccc(NC(=O)Cc4ccccc4)cc3C(=O)N([C@H](C)CO)C[C@@H]2C)cc1`, the growth inhibition call was “inactive”. With `C[C@@H]1CN([C@H](C)CO)C(=O)c2cc(NS(=O)(=O)c3cccs3)ccc2O[C@@H](C)CCCCO[C@H]1CN(C)C(=O)NC1CCCCC1` the growth inhibition call was “inactive”. With `C[C@@H]1CN([C@@H](C)CO)C(=O)c2cc(NC(=O)Nc3ccc(C(F)(F)F)cc3)ccc2O[C@@H]1CN(C)Cc1ccc(C(F)(F)F)cc1` the growth inhibition call was “inactive”. In the case of `COc1ccc(N2C[C@@H](O)Cn3c2nc2c3c(=O)[nH]c(=O)n2C)cc1`, the growth inhibition call is reported as “inactive”. For `C[C@@H]1CN([C@@H](C)CO)C(=O)c2c(c3ccccc3n2C)-c2ccccc2CO[C@@H]1CN(C)C(=O)Nc1ccc(-c2ccccc2)cc1`, the growth inhibition call was “inactive”. For `C[C@H]1CN([C@@H](C)CO)C(=O)Cc2cc(NC(=O)Nc3ccc(C(F)(F)F)cc3)ccc2O[C@@H]1CN(C)Cc1ccc(-c2ccccc2)cc1`, the growth inhibition call was “inactive”. In the case of `CC(C)[Si](C#C[Si](C(C)C)(C(C)C)C(C)C)(O[C@H](C)c1cn([C@H](C)c2ccccc2)nn1)C(C)C`, the growth inhibition call is reported as “inactive”. For `CN(C)CC(=O)N[C@H]1CC[C@H](CCn2cc(CN(C)C)nn2)O[C@H]1CO`, the growth inhibition call was “inactive”. `C[C@@H]1CN([C@H](C)CO)C(=O)c2cccc(NS(=O)(=O)c3ccc(F)cc3)c2O[C@H]1CN(C)Cc1ccc(Cl)c(Cl)c1` was tested, and the growth inhibition call was “inactive”. For `C[C@H](CO)N1C[C@H](C)[C@H](CN(C)Cc2ccncc2)Oc2ccc(NS(=O)(=O)c3cccs3)cc2C1=O`, the growth inhibition call was “inactive”. `C[C@@H]1CN([C@H](C)CO)C(=O)Cc2cc(NS(=O)(=O)c3ccccc3)ccc2O[C@H]1CN(C)Cc1ccc(C(=O)O)cc1` was tested, and the growth inhibition call was “inactive”. `C[C@@H]1CN([C@H](C)CO)C(=O)c2cccc(NS(=O)(=O)c3ccccc3)c2O[C@H]1CN(C)C(=O)Nc1cccc2ccccc12` was tested, and the growth inhibition call was “inactive”. For `Cc1ccc(S[C@]2(C(=O)NCc3ccccc3)CC(=O)N(Cc3ccccc3Cl)[C@@H]2c2ccc(CO)cc2I)cc1`, the growth inhibition call was “inactive”. `COc1ccc(NC(=O)Nc2ccc3c(c2)C(=O)N([C@@H](C)CO)C[C@@H](C)[C@H](CN(C)C(=O)NC(C)C)OCCCC[C@@H](C)O3)cc1` was tested, and the growth inhibition call was “inactive”. With `COc1ccccc1S(=O)(=O)N[C@@H]1C=C[C@H](CC(=O)N2CCN(C)CC2)O[C@@H]1CO` the growth inhibition call was “inactive”. For `COc1ccc(NC(=O)Nc2ccc3c(c2)C(=O)N([C@H](C)CO)C[C@H](C)[C@@H](CN(C)C(=O)Nc2ccc(OC)cc2)OCCCC[C@H](C)O3)cc1`, the growth inhibition call was “inactive”. In the case of `COc1ccc(C#Cc2ccc3c(c2)[C@H]2[C@H](CCN2C(=O)Nc2ccc(C(F)(F)F)cc2)[C@H](CO)N3C)cc1`, the growth inhibition call is reported as “inactive”. `Cc1ccc(S(=O)(=O)N(C)C[C@H]2Oc3ccc(NS(=O)(=O)c4ccccc4)cc3C(=O)N([C@H](C)CO)C[C@@H]2C)cc1` was tested, and the growth inhibition call was “inactive”. With `CO[C@H]1CN(C)C(=O)c2cc(NC(=O)NC(C)C)ccc2OC[C@H](C)N(Cc2ccc(-c3ccccn3)cc2)C[C@H]1C` the growth inhibition call was “inactive”. `C[C@@H]1CN([C@@H](C)CO)C(=O)c2c(c3ccccc3n2C)-c2ccccc2CO[C@H]1CN(C)Cc1ccc(Cl)c(Cl)c1` was tested, and the growth inhibition call was “inactive”. In the case of `C[C@@H]1CN([C@H](C)CO)S(=O)(=O)c2ccc(C#Cc3ccccc3F)cc2O[C@@H]1CN(C)CC1CC1`, the growth inhibition call is reported as “inactive”. With `NNC(=O)c1ccc(OC[C@@H](O)CO)cc1O` the growth inhibition call was “inactive”.

Source: the antibiotic and cytotoxicity screens of Wong et al. (2023)
